Measurements taken from PubChem BioAssay AID1347043 (National Center for Advancing Translational Sciences (NCATS), 2019).
Out of some 76,000 compounds screened, about 1,900 (2.5%) were called active. Inconclusive means that the source gave no clear call. Such entries were picked first, then a sample of the others. Calls come from the whole dose curve; as a rule, active = well fitted inhibition curve with a large enough effect; inconclusive = small, poorly fitted or top-dose-only effect; inactive = flat fitted curve, though single readings scatter. A potency beside an inconclusive call is a rough fit, not a confirmed value.

biological target: Luciferin 4-monooxygenase (Photinus pyralis) (UniProt P08659); assay: Firefly luciferase inhibition profiling of diverse chemical library using quantitative high-throughput screening; note: nearly all actives have a fitted effect of over 65% in size; conditions: purified P. pyralis luciferase, luminescence, biochemical; activity change, negative = inhibition: at 115 µM (top of the series) unless noted
Chain of UniProt P08659 (P08659 whole entry, looked up): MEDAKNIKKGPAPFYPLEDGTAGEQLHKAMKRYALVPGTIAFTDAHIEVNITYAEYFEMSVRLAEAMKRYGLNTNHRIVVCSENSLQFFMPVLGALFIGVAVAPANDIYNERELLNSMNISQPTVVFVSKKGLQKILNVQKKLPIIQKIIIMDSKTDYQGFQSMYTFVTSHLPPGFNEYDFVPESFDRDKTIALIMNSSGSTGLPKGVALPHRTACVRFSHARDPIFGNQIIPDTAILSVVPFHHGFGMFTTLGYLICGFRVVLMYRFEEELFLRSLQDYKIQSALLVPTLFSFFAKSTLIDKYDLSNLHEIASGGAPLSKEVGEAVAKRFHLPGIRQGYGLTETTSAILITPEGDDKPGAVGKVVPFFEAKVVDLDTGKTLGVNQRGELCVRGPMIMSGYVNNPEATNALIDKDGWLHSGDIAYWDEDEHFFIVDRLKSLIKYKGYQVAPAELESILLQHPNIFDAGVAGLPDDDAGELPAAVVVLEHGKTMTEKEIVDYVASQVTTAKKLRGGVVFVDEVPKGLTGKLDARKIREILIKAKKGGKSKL
Summary of the method: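 Luminescence read by CCD imaging after purified firefly luciferase (10nM final) was added to substrate buffer holding 10uM D-luciferin and 10uM ATP, pH 7.5, pre-dosed with compound.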
% is set by controls: 0 for no effect and ±100 for the full control effect; potency is the fitted concentration of half-maximal effect; tags give direction and shape of the fitted curve.

Structure (SMILES)	activity change, negative = inhibition	Potency
c1csc(CN2Cc3[nH]cnc3C[C@H]2c2nc(-c3ccc4ccccc4c3)no2)c1	inactive: 1.55% [at 172 µM]	–
O=S(=O)(c1ccc2c(c1)OCCO2)N1CC[C@@H]2COCCN(Cc3cccnc3)[C@@H]2C1	inactive: -0.246%	–
Cc1cn2nc(C(=O)NC3CCc4ccccc43)cc2c(N2CCCC2)n1 (stereo not given)	inactive: 6.97%	–
Cc1ccc(C2Cn3nnc(C(=O)N4CCN(C(=O)c5ccco5)CC4)c3CO2)cc1 (stereo not given)	inactive: -1.91%	–
O=C(Nc1ccncc1)C1=NO[C@@H]2CN(CCc3ccccc3)C[C@H]12	inactive: -25.2% [at 172 µM]	–
COCCN1CCOc2nc(-c3ccc(Oc4ccccc4)cc3)ncc2C1=O	–	active: 22.4 µM
COCCN1C(=O)CCc2cc(NC(=O)c3ccc(C)c(C)c3)ccc21	–	inconclusive: 28.2 µM [inhibitor, partial curve]
O=C(C1CCN(c2cnn(CC3CC3)c(=O)c2)C1)N1CCc2ccccc2C1 (stereo not given)	inactive: 0%	–
O=C(CC1C(=O)NCCN1Cc1ccc(-c2ccccc2)cc1)NCc1ccco1 (stereo not given)	–	inconclusive: 70.8 µM [inhibitor, single point]
O=C(NC1CCCN(c2cc(-c3ccc(F)cc3)[nH]n2)C1)c1cccs1 (stereo not given)	–	inconclusive: 44.7 µM [inhibitor, partial curve]
Cn1ccc(NCc2nc3c(n2Cc2ccccc2)C(=O)N(Cc2cccc(Cl)c2)CCN3)n1	inactive: -15.6%	–
CCn1cc(CN2CCN(C(=O)c3ccc(OC)nc3)CC2)ccc1=O	–	inconclusive: 50.1 µM [inhibitor, partial curve, poor fit]
Nc1nc(C2CC(O)C2)cc(N2CCC(OCc3ccccn3)CC2)n1 (stereo not given)	inactive: 15.3%	–
CCc1noc(-c2cn(C3CCN(C(=O)COc4ccccc4)C3)nn2)n1 (stereo not given)	inactive: 0%	–
O[C@@H]1C[C@@H](c2nc(-c3ccc4c(c3)OCO4)no2)N(CC2CC2)C1	–	active: 22.4 µM
COCC(=O)N1CCN2C(=O)c3cc(-c4ccc5c(c4)OCO5)ccc3NC(=O)[C@H]2C1	–	inconclusive: 112 µM [inhibitor, partial curve, poor fit]
O=C(Cc1ccc(F)cc1)N1CC2CC(C1)[C@H]1CCCC(=O)N1C2 (stereo not given in full)	inactive: -4.99%	–
Cc1occc1C(=O)N1CC(F)(F)C[C@H]1c1nc(C2CC2)no1	–	inconclusive: 39.8 µM [inhibitor, partial curve]
COc1ccc(C(=O)N2CCCC(n3cc(-c4nc(-c5ccccc5)no4)nn3)C2)cc1F (stereo not given)	–	inconclusive: 39.8 µM [inhibitor, full curve, poor fit]
O=C(Nc1ccc(F)cc1)c1ccc2c(c1)OCCN(CCC(F)(F)F)C2	–	inconclusive: 89.1 µM [inhibitor, partial curve, poor fit]
Cc1cccc(-c2noc([C@@H]3C[C@@H](O)CN3C3CCOCC3)n2)c1	–	active: 25.1 µM
Cc1c(-c2ccccc2F)[nH]c2ccc(CNS(=O)(=O)C3CC3)cc12	–	inconclusive: 44.7 µM [inhibitor, partial curve]
O=C1CCC2(C(=O)Nc3ccc(F)cc3F)CCCC=C2N1c1ccccc1 (stereo not given)	–	inconclusive: 50.1 µM [inhibitor, partial curve]

Structure (SMILES)	activity change, negative = inhibition	Potency
CCn1ccc(C(=O)N2c3ccccc3CC2c2nc(C(C)C)no2)n1 (stereo not given)	–	active: 39.8 µM
COc1ccccc1N1CCN(C(=O)c2cc(NC(=O)C(C)C)cc3nc(C)ccc23)CC1	–	inconclusive: 44.7 µM [inhibitor, partial curve, poor fit]
OCC1CCCN(c2ccc(-c3nc(-c4cccc(C(F)(F)F)c4)no3)cn2)C1 (stereo not given)	inactive: -24%	–
CCOc1ccc(NC(=O)N2c3ccccc3CC2c2noc(C3CCOCC3)n2)cc1 (stereo not given)	–	inconclusive: 44.7 µM [inhibitor, partial curve]
COC1CCCN(C(=O)c2cc(-c3cccc(N(C)C)c3)cc3ncn(C)c23)C1 (stereo not given)	–	inconclusive: 89.1 µM [inhibitor, partial curve, poor fit]
COc1cccc(CC(=O)N2CCCC(c3nc(-c4ccccc4)no3)CCNC(=O)CC2)c1 (stereo not given)	–	inconclusive: 56.2 µM [inhibitor, partial curve]
c1ccc(CNc2ncc(-c3ccc(N4CCOCC4)cc3)c3c2OCC3)cc1	–	inconclusive: 44.7 µM [inhibitor, full curve]
Cc1nn(-c2ccc(C(F)(F)F)cc2)c(C)c1[C@@H]1C=C[C@@H](NC(=O)CCCC(=O)O)C1	inactive: -2.23%	–
COC(=O)[C@H](Cc1ccccc1)NC1CCN(c2cccc(NC(=O)CC3CCCC3)c2)CC1	inactive: -3.57%	–
Cc1cnc(CC2CCN(C(=O)NC(C)(C)C)CC2)n1Cc1ccc(F)cc1	inactive: -2.28%	–
Cc1ccc(-n2c(C3CCN(C(=O)c4ccc(C)nc4)CC3)n[nH]c2=O)cc1	inactive: -4.12%	–
Cc1cccc(C(=O)Nc2cccc(C3OC(=O)N(Cc4ccccc4)C3C(=O)N3CCOCC3)c2)c1 (stereo not given)	–	inconclusive: 56.2 µM [inhibitor, partial curve]
CCCC(=O)N1CCCC(c2noc(COc3ccccc3F)n2)C1 (stereo not given)	–	inconclusive: 44.7 µM [inhibitor, partial curve]
O=C(NCCN1CCOCC1)[C@H]1C[C@@H](O)[C@H](O)[C@@H]2N=C(Nc3ccc(-n4cccn4)cc3)S[C@@H]21	–	active: 35.5 µM
O=C(Nc1ccccc1)N1CCC2(CC1)SCC(=O)N2c1ccc(Cl)cc1	–	active: 22.4 µM
CCS(=O)(=O)N1CCOCCNC(=O)[C@H]2CCCC[C@H]21	inactive: 5.53%	–
CC(C)c1ccc(Nc2n[nH]c(C(O)C3CC3)n2)cc1 (stereo not given)	–	active: 15.8 µM
Cn1ccnc1CN1CCN(C(=O)C2(Cn3ccnc3)CC2)CC1	inactive: 9.9%	–
O=C(CCC1CCN(c2cc(NC3CC3)ncn2)CC1)NCc1ccc(F)cc1F	–	inconclusive: 39.8 µM [inhibitor, partial curve, poor fit]
CCCN1CCc2nc(C(=O)Nc3nc(C)cs3)oc2CC1	–	active: 20 µM
CN(C)C[C@@H]1CN(S(C)(=O)=O)C[C@H]1NC(=O)c1cc2ccccc2[nH]1	–	inconclusive: 7.94 µM [inhibitor, full curve]
Cc1cccc(-n2cc(CN3C[C@@H](NS(C)(=O)=O)[C@H](C(C)C)C3)cn2)c1	–	inconclusive: 50.1 µM [inhibitor, partial curve]
